# Source: the supplement of paper PMC11417369
# The list shows a part of the results.
# Tested on: PfSIP2 AP2 domain 1 (GST-tagged)
# Assay: gcPBM binding intensity (ln(normalized median fluorescence intensity)); higher = stronger DNA binding
# Summary of the method: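 Binding intensity values are the highest Masliner-normalised natural-log median intensity among replicate spots of either probe orientation. The binding step lasted 1 h in 1× PBS with 1% milk, 0.2 mg/ml BSA, 0.5% salmon testes DNA and 0.03% Triton X-100, using GST-tagged P. falciparum DNA-binding domains expressed in E. coli on an Agilent 4 × 180k array of primer-extended double-stranded 36-bp intergenic genomic probes plus negative controls. Alexa488 anti-GST antibody and a 488 nm scan detected bound protein.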
row,Sequence,gcPBM binding intensity (ln)
1,AAAATAAAAAAAATGTAAAAGGTTAAAGTGAAATAT [CACACA_negctrl_site350],7.16
2,TGATATTATCTCTTCACACACTCACATACAGACAAA [CACACA_site1246],7.13
3,TAAAAATTAAAATGTTGTACAATGATAAAATATTAT [XGTACX_site7874],7.27
4,ATTTATTTATATACAAGTACATAAAAAATTAACTTA [XGTACX_site6170],6.7
5,TATTTGATAAAAAAAAGTACTAGAATTTCGCTTTTG [XGTACX_site7754],6.83
6,CTCAACATATACGTAACACACATATAAATATAAATA [CACACA_site7749],7.29
7,TAAATTGAAATATATTGTACATTATCAACTAAGGGA [XGTACX_site1635],7
8,AAATTATAAAATAACTGTACCAATCCTTTTTTTTTA [XGTACX_site2229],6.68
9,ATATTTAAAAAAGAGTGTACTCATCTCTTTTAAAAA [XGTACX_site1160],6.7
10,ATGTTGCTCATATGAGTGCACGTTTCATTTCAGTTT [GTGCAC_site9865],9.44
11,AATGTAGGTTTATTTACACACAAATATAGATATATA [CACACA_site6825],6.87
12,GTGTATTTATGTTATACACACAAAAATATTTTGTAT [CACACA_site4305],7.23
13,CTATTTCGTATATATAGTACATATTATAACATACTA [XGTACX_site978],7.35
14,AATTTATATAATTTTGTGCACAATATTCATGTATAT,8.93
15,ACAAAATAAAAACACACACACAAACACAAAAAAATA [CACACA_site3390],7.13
16,AGCTCTTGTCATTTTGCACACACACCGGTATAGGTT [CACACA_site5654],7
17,AGAAGGTAAAAACACACACACACATACAAAAAAAAA [CACACA_site3767],7.01
18,TATATATACAGACACATACACACAAATAAAAAAACA [CACACA_site3413],7.22
19,CCTCCATTAGATACTTGTACATAAAAGTTTTGATTG [XGTACX_site7428],7.06
20,AGACTTTGTACAAACACACACATGAACACAATATTA [CACACA_site1360],7.22
21,AATCATAAAATCATATGTACACATTTTTCCTATGAT [XGTACX_site8799],6.93
22,ATTTTATTAATTTGGTGTACTTAATTTATATTTTTC [XGTACX_site4947],6.94

row,Sequence,gcPBM binding intensity (ln)
1,AAAAAAAAAAAATAATAAATAAATAAAAATAAATGA [CACACA_negctrl_site1623],6.78
2,GAACCGTGCAAATGTTGTACACTTTAAAAATATTCT [XGTACX_site4488],8.21
3,ATATGTGTGTAGTGTTCAATTATATTGATGTGAAGG [TGCATGCA_negctrl_site462],7.13
4,TTATAATAATTTTATGCACACAGAAAAATACAAGGT [CACACA_site9169],8.21
5,ATAATATATATATTAACACACATCCTTTTATGTATA [CACACA_site1203],6.94
6,TACATATAGAAACACACACACATATATATATATATA [CACACA_site1300],9.59
7,TAGGAGCCTAGACACACACACAAAAAAAAAAAAAAA [CACACA_site6911],6.85
8,AAAACGAAAATTTGGAAACCAAAGGAAAAACATAAT [GTGCAC_negctrl_site709],7.01
9,AAAAAGGTTATTGGTACACACATATGTATATATATA [CACACA_site552],8.31
10,TATTTAATGTGATACTTATATTATTTTATGATTAAA [GTGCAC_negctrl_site25],6.72
11,TATACATACTCACCCACACACAAAAAAAAAAAAAAA [CACACA_site862],7.23
12,TATATAAGAATTTTTACACACATGAAAATGTAGATA [CACACA_site3735],6.83
13,GTTAGGATAGATTAGACATGCACATAAATGCACTTC [TGCATGCA_site561],11
14,TTTTTATAGAATTTAACACACATTTCATATAAAAAA [CACACA_site7453],6.94
15,TATATAACATAATATACACACATTATATGCGTAATT [CACACA_site6098],6.9
16,TTAAAATTCAAAAAAAAAAATCAGAATATCAGAAAA [CACACA_negctrl_site1361],6.86
17,GATATATAAATAAATACACACATAAAATAGAAATAT [CACACA_site6881],7.27
18,ATTAAAGAAATATATACACACATTATGGGGGAATAA [CACACA_site178],7.49
19,ACATATTAAAATATATGTACATAAAATATGAAAAAA [XGTACX_site5869],7.16
20,ATATTTATTCCTTTTGGTACACAAAAAAAAAAAAAA [XGTACX_site8126],6.97
21,AATTTAAGCAGAACATATATATATATATATATAAAG [CACACA_negctrl_site769],7.43
22,TATATGCTATAATATACACACATACCTATATTTATA [CACACA_site6383],7.07

row,Sequence,gcPBM binding intensity (ln)
1,TTTAAATGCTTTTTGTGGTGACTTATCCTTTCATAA [XGTACX_negctrl_site109],6.77
2,AATTATTTCTTTTACACATGCAATATTTAATTAAAA [TGCATGCA_site598],7.01
3,TTATTTGATTACTTGCGTACTTATTTCATATTTTTT [XGTACX_site6648],6.89
4,ATGAGAAAACATAAAAGTACAAAAAGAAAAAAAAAA [XGTACX_site6020],6.71
5,TCATAGTATGGACACACACACACACCCATATATATA [CACACA_site5033],7.46
6,TTGGGTCAAACATAAACACACACAAAAAGAAAAAAT [CACACA_site8328],6.87
7,TATTATATTAATGATGGTACAGTGTATATATATAAT [XGTACX_site1286],7.15
8,ACATATAATATAAAGTGTACAAGAAAATAAAAATAA [XGTACX_site1273],6.98
9,TTTCCATATTTTTAAAGTACATATTTCCGTTTCCAC [XGTACX_site7832],7.08
10,TAATAATAAACAACCACACACAAAAAAACAAAAAAA [CACACA_site3269],6.98
11,GTAGCACATATATATTGTACATAATATATACATTAT [XGTACX_site6354],7.04
12,ATTTAATTATGTAAGTGTACTTTGGAATATAATATT [XGTACX_site3186],7.14
13,TTTATTTTATAATTCACACATATATACCTATTTTAT [CACACA_site5709],6.95
14,GTGTGGTGCTCGAGGAGTACAAACAATATGTAATTT [XGTACX_site4160],9.03
15,TAAACAGACATATAAACACACATATAAACAGACATA [CACACA_site7214],6.98
16,TTTTCTTCCTATTATTGTACATATAGTATTCTTTCA [XGTACX_site4428],7.2
17,AATATAAGTAATTATACACACTTAATATTTATATAC [CACACA_site7334],6.8
18,AATTATACATATATTTAACACACATTTTATAAAGTG [CACACA_site8362],6.94
19,ATATATATATATAATTGTACATGTGTGTATAATTTG [XGTACX_site2417],9.29
20,TTTTATTTTATATAACAACAAAATGGAAATATATAT [GTGCAC_negctrl_site71],7.19
21,GTCAATATTTAGATATGTACTAAGGAGTGCTATATA [XGTACX_site222],7.29
22,TAAATGAAAATAAATTAACACACAATTTTAATATTG [CACACA_site8360],6.55

row,Sequence,gcPBM binding intensity (ln)
1,ATATTATGAAGGGATATTTTCAAAAATATTAGGAGA [CACACA_negctrl_site942],6.92
2,CAATTTTTATGTGTGTGTACTCATTTGTTTTATAAA [XGTACX_site406],7.42
3,TTGGAATAATATAAATAAATAAATATATATATATAT [CACACA_negctrl_site900],9.05
4,ATACAACAGATATATACACACATATAACAATAATAA [CACACA_site7560],7.16
5,AAAAAAAAAAAATGTGCACACGCGTACACCCAAAAA [CACACA_site8614],9.45
6,TTTCTTTTTGTTCGTGTACACACATGAAATTTATAA [CACACA_site8466],7.42
7,GTAATAAATTAAATATGTACATATTAAAATTAAGGA [XGTACX_site2290],7.27
8,ATTGATACATCCAATACACACTACAGATAATGATGT [CACACA_site5098],6.97
9,TGCTACATAATATGTACACACATATACATATTTATA [CACACA_site6545],7.26
10,GTATGATTAAATAAAGGTACACTTATATTTATTTAT [XGTACX_site6966],7.32
11,TATCACATTTATGAGAGTACATAATTAATTCATGAT [XGTACX_site7850],6.98
12,GAATTAATTTTAAAACGTACATGGGTGTATTTACAC [XGTACX_site5939],7.31
13,CATAATACAAATGTGATACCTGAAAATGACTTATTA [CACACA_negctrl_site994],6.7
14,TTCTTTTTTGTAATAACACACACACTAACAGAAAAA [CACACA_site8646],7.54
15,ATTAAATACATTAACACACACACAAATAAATACATA [CACACA_site5583],7.01
16,TTTTATTATTTGTCTTGTACTCATTGTAAGAGTATG [XGTACX_site1538],7.33
17,GACAGATTATAGCATAGTACTCATACATACATACAT [XGTACX_site1252],8.08
18,TACATACATACATACACACACACATCTATATTTATA [CACACA_site6171],8.26
19,TTTCAAAAATTATTTTGTACATATAATTAATATACG [XGTACX_site512],6.98
20,AATTTCTTCCATTGTAGTACTCAATTTTTTTTTGTT [XGTACX_site5847],7.21
21,GTGTAATATTATATATATATATATAATATATATACA [CACACA_negctrl_site263],7.31
22,CACATATACAAAAAGAAATGTTTAGTTGAAAATTAA [CACACA_negctrl_site1407],6.67
